Source: paper PMC10209169
No constants are given. Whether binding was seen depends on the method and setting. In cells and extracts the contact can be indirect. Some entries that bind do so weakly or less than the wild type. For some of these results: Where a sequence is shown, tags or fusion partners need not be part of it.

Amino acid sequences for entries named in this document (tags omitted).
UniProt Q9BQ24: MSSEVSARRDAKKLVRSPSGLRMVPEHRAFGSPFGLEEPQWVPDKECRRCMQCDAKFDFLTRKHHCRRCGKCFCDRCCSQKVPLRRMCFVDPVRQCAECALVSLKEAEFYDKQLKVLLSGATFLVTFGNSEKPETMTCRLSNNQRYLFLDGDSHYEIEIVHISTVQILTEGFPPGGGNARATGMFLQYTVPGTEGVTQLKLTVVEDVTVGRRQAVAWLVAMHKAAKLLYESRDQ
UniProt P29466: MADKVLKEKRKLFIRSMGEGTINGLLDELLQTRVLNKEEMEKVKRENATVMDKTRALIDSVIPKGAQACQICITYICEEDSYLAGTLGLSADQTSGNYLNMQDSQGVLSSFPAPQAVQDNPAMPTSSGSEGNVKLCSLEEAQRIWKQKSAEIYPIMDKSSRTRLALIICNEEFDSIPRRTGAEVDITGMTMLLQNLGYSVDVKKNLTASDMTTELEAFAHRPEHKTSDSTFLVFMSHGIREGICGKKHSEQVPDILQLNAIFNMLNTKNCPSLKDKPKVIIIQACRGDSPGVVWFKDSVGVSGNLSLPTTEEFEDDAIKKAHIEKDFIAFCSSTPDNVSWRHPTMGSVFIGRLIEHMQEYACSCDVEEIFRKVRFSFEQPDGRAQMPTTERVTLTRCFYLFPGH

Columns and labels:
[1] = target: T1, Flightless I (human (endogenous in HUVEC)) (UniProt Q13045); experiment: co-IP; anti-FliI pulldown from lysates of HUVEC, basal and PRA for the indicated times; RIPA buffer without SDS, protein A/G agarose
T1 sequence: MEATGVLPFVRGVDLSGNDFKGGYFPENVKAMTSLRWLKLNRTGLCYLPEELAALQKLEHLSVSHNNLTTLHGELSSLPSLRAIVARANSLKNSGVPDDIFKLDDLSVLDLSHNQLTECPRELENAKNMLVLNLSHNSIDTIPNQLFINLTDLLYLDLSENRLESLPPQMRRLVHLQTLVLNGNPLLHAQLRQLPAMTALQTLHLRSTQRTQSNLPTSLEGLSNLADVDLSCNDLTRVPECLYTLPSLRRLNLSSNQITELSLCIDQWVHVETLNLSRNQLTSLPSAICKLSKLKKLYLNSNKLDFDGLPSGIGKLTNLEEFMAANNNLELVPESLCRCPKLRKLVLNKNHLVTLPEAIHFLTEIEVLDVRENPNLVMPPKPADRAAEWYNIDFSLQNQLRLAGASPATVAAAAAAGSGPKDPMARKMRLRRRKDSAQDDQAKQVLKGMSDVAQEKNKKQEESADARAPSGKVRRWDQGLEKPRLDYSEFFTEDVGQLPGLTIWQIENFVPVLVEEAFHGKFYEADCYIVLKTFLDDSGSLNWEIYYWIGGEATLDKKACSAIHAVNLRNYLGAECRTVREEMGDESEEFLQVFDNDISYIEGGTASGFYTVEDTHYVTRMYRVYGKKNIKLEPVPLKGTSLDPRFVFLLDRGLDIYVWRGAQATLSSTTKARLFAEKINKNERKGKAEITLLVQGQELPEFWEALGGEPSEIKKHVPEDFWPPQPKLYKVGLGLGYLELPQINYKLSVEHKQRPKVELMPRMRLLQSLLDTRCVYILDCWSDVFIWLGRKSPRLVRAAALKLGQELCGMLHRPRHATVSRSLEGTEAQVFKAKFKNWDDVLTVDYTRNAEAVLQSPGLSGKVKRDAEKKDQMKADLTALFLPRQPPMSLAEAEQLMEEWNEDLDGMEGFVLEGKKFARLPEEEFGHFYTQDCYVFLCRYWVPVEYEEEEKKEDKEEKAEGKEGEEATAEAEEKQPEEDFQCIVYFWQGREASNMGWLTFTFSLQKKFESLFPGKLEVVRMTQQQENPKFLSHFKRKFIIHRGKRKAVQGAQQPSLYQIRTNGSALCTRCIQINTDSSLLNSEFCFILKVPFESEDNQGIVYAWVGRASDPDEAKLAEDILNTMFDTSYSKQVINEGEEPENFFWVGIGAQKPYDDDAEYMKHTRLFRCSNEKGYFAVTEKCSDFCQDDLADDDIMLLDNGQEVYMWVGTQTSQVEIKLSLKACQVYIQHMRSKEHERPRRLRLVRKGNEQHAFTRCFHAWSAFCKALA

[2] = target: T1, Flightless I (human (endogenous in HUVEC)); experiment: co-IP; anti-FliI pulldown from lysates of HUVEC after PRA treatment
[3] = target: T2, AA 625-760 of Rubicon fused with GFP (UniProt Q92622); experiment: co-IP; GFP co-IP from HeLa cells transiently transfected with GFP-tagged Rubicon truncation constructs; blot for procaspase-1
T2 sequence: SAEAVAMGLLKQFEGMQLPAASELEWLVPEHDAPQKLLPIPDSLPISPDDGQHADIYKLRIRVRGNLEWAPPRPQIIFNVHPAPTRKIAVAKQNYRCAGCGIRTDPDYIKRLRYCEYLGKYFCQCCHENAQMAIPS

[4] = target: ZFYVE21 (human (endogenous in HUVEC)) (UniProt Q9BQ24); experiment: co-IP; ZFYVE21 co-IP from cortical renal tissue of subjects with antibody-mediated rejection (ABMR, n = 6)
[5] = target: procaspase-1 (50 kD) (human (endogenous in HUVEC)) (UniProt P29466); experiment: co-IP; anti-caspase-1 pulldown from HUVEC transiently transfected with increasing plasmid concentrations encoding AA 625-760 of Rubicon fused with GFP, or full-length FliI (competition by overexpression)
[6] = target: ZFYVE21 (human (endogenous in HUVEC)) (UniProt Q9BQ24); experiment: co-IP; ZFYVE21 co-IP from human cortical renal tissue of control patients in organ culture, PRA for 4 h; Western blot (n = 3)
ZFYVE21-GFP [7] = target: ZFYVE21-GFP (UniProt Q9BQ24); experiment: co-IP; GFP co-IP from HUVEC stably co-transduced with Rab5 DN-mCherry and ZFYVE21-GFP or Rubicon-GFP, treated with MG132
ZFYVE21-GFP [8] = target: ZFYVE21-GFP (UniProt Q9BQ24); experiment: co-IP; GFP pulldown from HUVEC stably transduced with ZFYVE21-GFP, PRA for 30 min
[9] = target: ZFYVE21 (human (endogenous in HUVEC)) (UniProt Q9BQ24); experiment: co-IP; ZFYVE21 co-IP from cortical renal tissue of healthy control subjects (HC, n = 6)

For “procaspase-1 (50 kD) (from UniProt P29466 1-404) (enzyme)”, the binding [1] was “binds”, the binding [2] was “no binding (condition: after PRA treatment)” and the binding [3] was “binds”.

B1: Rubicon (protein, UniProt Q92622 1-972)
chain: MRPEGAGMELGGGEERLPEESRREHWQLLGNLKTTVEGLVSTNSPNVWSKYGGLERLCRDMQSILYHGLIRDQACRRQTDYWQFVKDIRWLSPHSALHVEKFISVHENDQSSADGASERAVAELWLQHSLQYHCLSAQLRPLLGDRQYIRKFYTDAAFLLSDAHVTAMLQCLEAVEQNNPRLLAQIDASMFARKHESPLLVTKSQSLTALPSSTYTPPNSYAQHSYFGSFSSLHQSVPNNGSERRSTSFPLSGPPRKPQESRGHVSPAEDQTIQAPPVSVSALARDSPLTPNEMSSSTLTSPIEASWVSSQNDSPGDASEGPEYLAIGNLDPRGRTASCQSHSSNAESSSSNLFSSSSSQKPDSAASSLGDQEGGGESQLSSVLRRSSFSEGQTLTVTSGAKKSHIRSHSDTSIASRGAPESCNDKAKLRGPLPYSGQSSEVSTPSSLYMEYEGGRYLCSGEGMFRRPSEGQSLISYLSEQDFGSCADLEKENAHFSISESLIAAIELMKCNMMSQCLEEEEVEEEDSDREIQELKQKIRLRRQQIRTKNLLPMYQEAEHGSFRVTSSSSQFSSRDSAQLSDSGSADEVDEFEIQDADIRRNTASSSKSFVSSQSFSHCFLHSTSAEAVAMGLLKQFEGMQLPAASELEWLVPEHDAPQKLLPIPDSLPISPDDGQHADIYKLRIRVRGNLEWAPPRPQIIFNVHPAPTRKIAVAKQNYRCAGCGIRTDPDYIKRLRYCEYLGKYFCQCCHENAQMAIPSRVLRKWDFSKYYVSNFSKDLLIKIWNDPLFNVQDINSALYRKVKLLNQVRLLRVQLCHMKNMFKTCRLAKELLDSFDTVPGHLTEDLHLYSLNDLTATRKGELGPRLAELTRAGATHVERCMLCQAKGFICEFCQNEDDIIFPFELHKCRTCEECKACYHKACFKSGSCPRCERLQARREALARQSLESYLSDYEEEPAEALALEAAVLEAT
For B1, the binding [1] was “binds”, the binding [4] was “binds” and the binding [5] was “binds”. For the same molecule, the binding [6] was “binds”, the binding (ZFYVE21-GFP [7]) was “binds” and the binding (ZFYVE21-GFP [8]) was “binds”. For the same molecule, the binding [9] was “no binding (condition: healthy control (HC) tissues)”.
